PubChem BioAssay AID651820 (National Center for Advancing Translational Sciences (NCATS), 2012)
Where “and” joins values, the source holds several entries; their conditions need not be identical. Equal entries are not always repeated. Out of some 340,000 compounds screened, about 12,000 (3.5%) were called active. The shares of active, inactive and inconclusive entries below differ from those in the screen. Calls come from the whole dose curve; as a rule, active = well fitted inhibition curve with a large enough effect; inconclusive = small, poorly fitted or top-dose-only effect, or another doubt; inactive = no such curve, though single readings can be large or run the other way. Potencies beside an inconclusive call are fits to weak or partial responses and may not hold up. Where a structure was tested more than once in an assay, its records may differ in their call.

assay: qHTS Assay for Inhibitors of Hepatitis C Virus (HCV); settings: Huh7.5.1 HCVcc-Cre (HCVcc is cell-culture hepatitis C virus) infection, luciferase reporter, 44 h; activity change, negative = inhibition: at 41.8 µM (top of the series) unless noted
Summary of the method: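 Luciferase read-out (15 sec integration) after a 15 min room-temperature substrate step quantifies HCVcc-Cre infection. Cells, 1,000 per well, had compound added 4 h post-plating, then virus at ~0.5 moi, and were cultured 44 h.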
% is set by controls: 0 for no effect and ±100 for the full control effect; potency is the fitted concentration of half-maximal effect; tags give direction and shape of the fitted curve.

Row | SMILES | Potency | activity change, negative = inhibition
1 | COc1cccc(Oc2ccc(N)cn2)c1 | inconclusive: 31.6 µM [inhibitor, single point] | –
2 | O=C1NC(=O)N(CCc2ccc(F)cc2)C(=O)/C1=C\C=C\c1ccccc1 | active: 3.98 µM | –
3 | O=C(N/N=C\c1c(F)c(F)c(F)c(F)c1F)c1ccc(-c2ccccc2)cc1 | inactive | –
4 | CCOC(=O)c1cc(CC)sc1NC(=O)c1cccc(N2C(=O)CCC2=O)c1 | inconclusive: 11.2 µM [inhibitor, partial curve] | –
5 | Cc1ccc(-n2nc(C)c3c(C)c(CCC(=O)Nc4ccc(CN5CCCC5)cc4)c(C)nc32)cc1 | inconclusive: 2.24 µM [inhibitor, full curve] | –
6 | O=C(NCc1ccco1)c1nn2c(C(F)(F)F)cc(-c3cccs3)nc2c1Br | inactive and inconclusive: 891 nM [inhibitor, full curve] | –
7 | Cc1ccc2nc(SCC(=O)c3ccc4c(c3)NC(=O)CO4)[nH]c2c1 | inconclusive: 2 µM [inhibitor, partial curve] | –
8 | COC(=O)c1cc(NS(=O)(=O)c2ccc(N3CCOCC3)c(NC(C)=O)c2)cc(C(=O)OC)c1 | inactive | –
9 | CCc1cc(=O)oc2c3c(cc(OCC(=O)NCCN4CCOCC4)c12)OC(C)(C)CC3 | inconclusive: 35.5 µM [inhibitor, partial curve, poor fit] | –
10 | CCOC(=O)c1sc2ncnc(N3CCN(c4ccc(OC)cc4)CC3)c2c1C | inconclusive: 12.6 µM [inhibitor, partial curve] | –
11 | CCOc1ccc(C2/C(=C(\O)c3ccc4c(c3)OCCO4)C(=O)C(=O)N2Cc2cccnc2)cc1OCC (stereo not drawn) | inactive | –
12 | O=C(CSc1ncnc2c1nnn2Cc1ccc(F)cc1)NCC1CCCO1 (stereo not drawn) | inconclusive: 14.1 µM [inhibitor, single point] | –
13 | COc1cc(-c2nc3oc4ccccc4c(=O)c3c(=O)n2Cc2ccco2)cc(OC)c1OC | inactive | –
14 | CN(CCOc1ccc(Cl)c(Cl)c1)Cc1ccccc1 | inactive | –
15 | Cc1ccc(C)c(S(=O)(=O)N2CCN(C(=O)C3CCN(c4ncnc5sc(C)c(C)c45)CC3)CC2)c1 | active: 11.2 µM | –
16 | CCOc1cc2[nH]c(=S)n(C(C)C)c(=O)c2cc1OCC | inconclusive: 12.6 µM [inhibitor, partial curve] | –
17 | CCC(Oc1ccc2c(c1)C(=O)CC(C)(C)O2)C(=O)NCCN1CCCCCC1 (stereo not drawn) | – | inconclusive: -32.9% [inhibitor]
18 | CS(=O)(=O)c1ccccc1-c1nnc(NC(=O)Cc2ccccc2)o1 | inconclusive: 31.6 µM [inhibitor, single point] | –
19 | CC(NC(=O)c1ccccc1)c1ccc(F)cc1 (stereo not drawn) | inactive | –
20 | COc1ccccc1-c1cc(C(=O)Nc2sc3c(c2C#N)CCC(C)C3)c2ccccc2n1 (stereo not drawn) | inconclusive: 1.12 µM [inhibitor, partial curve] | –
21 | CCOC(=O)C1CCN(Cc2c(F)cccc2Cl)CC1 | inactive | –
22 | COc1cccc2c1C(=O)c1c(O)c3c(c(O)c1C2=O)C[C@@](O)(C(C)=O)C[C@@H]3O[C@H]1C[C@H](N)[C@H](O)[C@H](C)O1 | active: 6.31 µM | –
23 | CCN(CC)CCN(C(=O)c1ccc2c(c1)CCCC2)c1nc2ccc(C)cc2s1 | inconclusive: 3.55 µM [inhibitor, single point] | –

Row | SMILES | Potency | activity change, negative = inhibition
24 | O=C(c1cccc(S(=O)(=O)N2CCN(c3ccccc3)CC2)c1)N1CCN(c2ccccc2O)CC1 | inconclusive: 14.1 µM [inhibitor, single point] | –
25 | CCN(C(=O)c1c(C)noc1C)c1c(N)n(Cc2ccccc2)c(=O)[nH]c1=O | inconclusive: 35.5 µM [inhibitor, partial curve, poor fit] | –
26 | CCOC(=O)CCNC(=O)Nc1ccc2nc(C)n(Cc3cccc(Cl)c3)c(=O)c2c1 | inconclusive: 22.4 µM [inhibitor, single point] | –
27 | CCN(CC)C(=O)c1sc(NC(=O)C(Sc2ccccc2)c2ccccc2)c(C(=O)OC(C)C)c1C (stereo not drawn) | active: 10 µM | –
28 | COc1cc(-c2noc(-c3ccccc3C(=O)NCc3ccco3)n2)cc(OC)c1OC | active: 11.2 µM | –
29 | O=C1CCCN1CCCNS(=O)(=O)c1ccc(F)cc1F | inactive | –
30 | CCc1ccc(NC(=O)Cn2nnc(C(=O)NCc3ccc(OC)cc3)c2N)cc1 | inconclusive: 31.6 µM [inhibitor, single point] | –
31 | CCOC(=O)c1c(C)[nH]c(C(=O)OCC(=O)NC(C)(C)C)c1C | active: 14.1 µM | –
32 | COc1cc(C(=O)NCc2cccnc2)ccc1OCC(=O)Nc1cccc(C(F)(F)F)c1 | inconclusive: 10 µM [inhibitor, partial curve] | –
33 | CC1(C)CC(=O)c2cnc(N3CCN(c4ccccc4)CC3)nc2C1 | inactive | –
34 | C/C(=N/NC(=O)CN1CCN(Cc2ccccc2)CC1)c1ccc([N+](=O)[O-])cc1 | inconclusive: 20 µM [inhibitor, single point] | –
35 | CSc1sc(C)cc1C1C(C#N)=C(N)N(c2cccnc2)C2=C1C(=O)CC(C)(C)C2 (stereo not drawn) | inactive | –
36 | CCOc1ccc(Br)cc1S(=O)(=O)Nc1ccc(C(=O)Nc2ccc(C)cc2)cc1 | inconclusive: 3.55 µM [inhibitor, full curve] | –
37 | COc1ccc(N2C(=O)C(C)(C)C2c2c(O)ccc3ccccc23)cc1 (stereo not drawn) | inconclusive: 10 µM [inhibitor, partial curve] | –
38 | O=C(NCc1ccccc1)C1=C[C@@H](c2ccc(Br)cc2)C[C@@H](OCc2ccc(CO)cc2)O1 | inconclusive: 31.6 µM [inhibitor, single point] | –
39 | COc1cc(C=C(C(C)=O)C(C)=O)ccc1O | inactive | –
40 | Cn1cc(CN2CCCC(CO)(Cc3cccc(Cl)c3)C2)cn1 (stereo not drawn) | inactive | –
41 | COc1ccc(-c2csc3ncnc(N4CCN(S(=O)(=O)c5cccc(F)c5)CC4)c23)cc1 | inconclusive: 22.4 µM [inhibitor, single point] | –
42 | COc1ccc(C(=O)c2c(C(F)(F)F)oc3c2C(=O)c2ccccc2C3=O)cc1OC | inconclusive: 14.1 µM [inhibitor, single point] | –
43 | Cc1ccc(-c2c(C(=O)N(C)Cc3ccccc3)oc(=O)c3ccccc23)cc1 | inactive | –
44 | CC(C)NS(=O)(=O)c1ccc(NC(=O)C(C)Oc2ccc(C(=O)c3ccccc3)cc2)cc1 (stereo not drawn) | inconclusive: 11.2 µM [inhibitor, partial curve] | –
45 | CC(C)(C)Nc1nc2nonc2nc1NC(C)(C)C | inconclusive: 11.2 µM [inhibitor, single point] | –
46 | Cc1oc(C(C)(C)C)cc1C(=O)Nc1ccc2c(c1)OCCO2 | inconclusive: 31.6 µM [inhibitor, single point] | –

Row | SMILES | Potency | activity change, negative = inhibition
47 | COc1ccc(NC(=O)Nc2ccccc2F)cc1 | inactive | –
48 | COCCN1C(=O)/C(=C/c2ccc(OCc3ccc(C(=O)O)cc3)c(OC)c2)SC1=Nc1ccccc1 | inactive | –
49 | CCO[C@H]1OC(C(=O)N2CCN(Cc3ccc4c(c3)OCO4)CC2)=C[C@@H](c2ccccc2)[C@@H]1CCCO | inconclusive: 5.62 µM [inhibitor, single point] | –
50 | COc1ccc(/C(N)=N/OC(=O)c2cccc([N+](=O)[O-])c2C)cc1OC | inconclusive: 31.6 µM [inhibitor, single point] | –
51 | Cc1ccccc1C(=O)NC1CCN(CC(=O)Nc2ccccc2Cl)CC1 | inconclusive: 31.6 µM [inhibitor, single point] | –
52 | Cc1cc(NO)c(C(C)C)cc1N=O | inconclusive: 14.1 µM [inhibitor, single point] | –
53 | O=C(CN1C(=O)/C(=C/c2ccccc2F)Sc2ccccc21)NCC1CCCO1 (stereo not drawn) | inconclusive: 31.6 µM [inhibitor, single point] | –
54 | CCOC(=O)c1c(NC(=O)c2c(Br)cnn2C)c(C#N)nn1-c1ccccc1 | inconclusive: 1.78 µM [inhibitor, full curve] | –
55 | Cc1ccc(SCC(=O)N(Cc2nc(-c3ccccc3)no2)C(C)C)cc1 | inconclusive: 31.6 µM [inhibitor, single point] | –
56 | NNC(=O)CNC(c1ccccc1)c1cc(Br)ccc1NC(=O)CCN1CCOCC1 (stereo not drawn) | inconclusive: 10 µM [inhibitor, partial curve] | –
57 | Cc1ccccc1/C=N/n1c(-c2ccccn2)n[nH]c1=S | inactive | –
58 | COc1cc(C(=O)NNC(=O)c2ccccc2OCc2c(C)noc2C)cc(OC)c1OC | inconclusive: 10 µM [inhibitor, partial curve] | –
59 | c1ccc2oc(-c3csc(N4CCOCC4)n3)cc2c1 | inconclusive: 12.6 µM [inhibitor, single point] | –
60 | CC(=O)N1c2ccc(S(=O)(=O)NCCC(=O)NCCc3ccc(Cl)cc3)cc2CC1C (stereo not drawn) | inconclusive: 22.4 µM [inhibitor, single point] | –
61 | C=CCn1c(SCC(=O)Nc2sccc2C(N)=O)nc2sc(CC)cc2c1=O | active: 11.2 µM | –
62 | Cc1ccccc1C(=O)NC(=S)Nc1cccc(NC(=O)C(C)C)c1 | inconclusive: 31.6 µM [inhibitor, single point] | –
63 | Cc1ccc(C(=O)c2ccc(N3CCN(C)CC3)c([N+](=O)[O-])c2)cc1 | active: 10 µM | –
64 | C=C1CCN([C@H](C(=O)OCc2cccc(C)c2)C(C)C)S(=O)(=O)c2ccccc21 | inconclusive: 31.6 µM [inhibitor, single point] | –
65 | O=c1[nH]cc(S(=O)(=O)Nc2ccc3c(c2)OCO3)c(=O)[nH]1 | – | inconclusive: -70.6% [inhibitor]
66 | O=C(Nc1ccccc1)N(O)c1ccc(Cl)cc1 | inactive | –
67 | O=C(NCc1ccco1)c1ccc2nccnc2c1 | inactive | –
68 | CNN/C(N=Cc1ccc([N+](=O)[O-])s1)=N\S(=O)(=O)c1cc(C)c(Cl)cc1SCc1ccccc1 | inconclusive: 12.6 µM [inhibitor, partial curve] | –
